{
  "source": "the supplement of paper PMC8728848",
  "binders": {"B1": {"name": "Siglec-E (Mus musculus), Q91Y57 (protein)", "chain": "MLLLLLLLLLWGIKGVEGQNPQEVFTLNVERKVVVQEGLCVLVPCNFSYLKKRLTDWTDSDPVHGFWYREGTDRRKDSIVATNNPIRKAVKETRNRFFLLGDPWRNDCSLNIREIRKKDAGLYFFRLERGKTKYNYMWDKMTLVVTALTNTPQILLPETLEAGHPSNLTCSVPWDCGWTAPPIFSWTGTSVSFLSTNTTGSSVLTITPQPQDHGTNLTCQVTLPGTNVSTRMTTRLNVSYAPKNLTVTIYQGADSVSTILKNGSSLPISEGQSLRLICSTDSYPPANLSWSWDNLTLCPSKLSKPGLLELFPVHLKHGGVYTCQAQHALGSQHISLSLSPQSSATLSEMMMGTFVGSGVTALLFLSVCILLLAVRSYRRKPARPAVVAPHPDALKVSVSQNPLVESQADDSSEPLPSILEAAPSSTEEEIHYATLSFHEMKPMNLWGQQDTTTEYSEIKFPQRTAWP"}},
  "experiment_in_all_cases": "glycan array binding signal (z-score within array); higher = stronger binding",
  "settings_in_all_cases": "glycan notation: IUPAC condensed, linker removed",
  "key": {"[1]": {"molecular_target": "Gal(b1-4)GlcNAc(b1-3)Gal(b1-4)GlcNAc(b1-3)[Gal(b1-4)GlcNAc(b1-3)Gal(b1-4)GlcNAc(b1-6)]GalNAc", "method_in_brief": "(§1)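 Arrays were curated from the Consortium for Functional Glycomics database, 3228 in total, and kept only where the protein sequence was available. Binding is expressed as a within-array Z-score. This score was averaged across arrays of the same protein sequence at different concentrations or buffers and across linkers, and negative values can be read as non-binding.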"}, "[2]": {"molecular_target": "Gal(b1-4)GlcNAc(b1-3)Gal(b1-4)GlcNAc(b1-6)[Gal(b1-3)]GalNAc", "method_in_brief": "as §1"}, "[3]": {"molecular_target": "Gal(b1-4)GlcNAc(b1-3)Gal(b1-4)[Fuc(a1-3)]GlcNAc(b1-3)Gal(b1-4)[Fuc(a1-3)]GlcNAc", "method_in_brief": "as §1"}, "[4]": {"molecular_target": "Gal(b1-4)GlcNAc(b1-3)GalNAc", "method_in_brief": "as §1"}, "[5]": {"molecular_target": "Gal(b1-4)GlcNAc(b1-3)[Fuc(a1-3)GlcNAc(b1-6)]Gal(b1-4)Glc", "method_in_brief": "as §1"}, "[6]": {"molecular_target": "Gal(b1-4)GlcNAc(b1-3)[Gal(b1-4)GlcNAc(b1-6)]Gal(b1-4)GlcNAc", "method_in_brief": "as §1"}, "[7]": {"molecular_target": "Gal(b1-4)GlcNAc(b1-3)[GlcNAc(b1-6)]Gal(b1-4)GlcNAc", "method_in_brief": "as §1"}, "[8]": {"molecular_target": "Gal(b1-4)GlcNAc(b1-6)Gal(b1-4)GlcNAc", "method_in_brief": "as §1"}, "[9]": {"molecular_target": "Gal(b1-4)GlcNAc(b1-6)GalNAc", "method_in_brief": "as §1"}, "[10]": {"molecular_target": "Gal(b1-4)GlcNAc(b1-6)[Gal(b1-3)]GalNAc", "method_in_brief": "as §1"}, "[11]": {"molecular_target": "Gal(b1-4)GlcNAc(b1-6)[Gal(b1-4)GlcNAc(b1-3)]GalNAc", "method_in_brief": "as §1"}, "Gal(b1-4)GlcNAc6P": {"molecular_target": "Gal(b1-4)GlcNAc6P", "method_in_brief": "as §1"}, "Gal(b1-6)Gal": {"molecular_target": "Gal(b1-6)Gal", "method_in_brief": "as §1"}, "Gal3S(b1-3)GalNAc": {"molecular_target": "Gal3S(b1-3)GalNAc", "method_in_brief": "as §1"}, "Gal3S(b1-3)GlcNAc": {"molecular_target": "Gal3S(b1-3)GlcNAc", "method_in_brief": "as §1"}, "[12]": {"molecular_target": "Gal3S(b1-3)[Fuc(a1-4)]GlcNAc", "method_in_brief": "as §1"}, "Gal3S(b1-4)Glc": {"molecular_target": "Gal3S(b1-4)Glc", "method_in_brief": "as §1"}, "Gal3S(b1-4)Glc6S": {"molecular_target": "Gal3S(b1-4)Glc6S", "method_in_brief": "as §1"}, "Gal3S(b1-4)GlcNAc": {"molecular_target": "Gal3S(b1-4)GlcNAc", "method_in_brief": "as §1"}, "[13]": {"molecular_target": "Gal3S(b1-4)[Fuc(a1-3)]Glc6S", "method_in_brief": "as §1"}, "[14]": {"molecular_target": "Gal3S(b1-4)[Fuc(a1-3)]GlcNAc", "method_in_brief": "as §1"}, "[15]": {"molecular_target": "Gal3S(b1-4)[Fuc(a1-3)]GlcNAc6S", "method_in_brief": "as §1"}, "Gal3S4S(b1-4)GlcNAc": {"molecular_target": "Gal3S4S(b1-4)GlcNAc", "method_in_brief": "as §1"}, "Gal3S6S(b1-4)GlcNAc": {"molecular_target": "Gal3S6S(b1-4)GlcNAc", "method_in_brief": "as §1"}, "Gal3S6S(b1-4)GlcNAc6S": {"molecular_target": "Gal3S6S(b1-4)GlcNAc6S", "method_in_brief": "as §1"}, "Gal4S(b1-4)GlcNAc": {"molecular_target": "Gal4S(b1-4)GlcNAc", "method_in_brief": "as §1"}, "Gal4S6S(b1-4)GlcNAc": {"molecular_target": "Gal4S6S(b1-4)GlcNAc", "method_in_brief": "as §1"}, "Gal6P(b1-4)GlcNAc": {"molecular_target": "Gal6P(b1-4)GlcNAc", "method_in_brief": "as §1"}, "Gal6S(b1-3)GlcNAc": {"molecular_target": "Gal6S(b1-3)GlcNAc", "method_in_brief": "as §1"}, "Gal6S(b1-3)GlcNAc6S": {"molecular_target": "Gal6S(b1-3)GlcNAc6S", "method_in_brief": "as §1"}, "Gal6S(b1-4)Glc": {"molecular_target": "Gal6S(b1-4)Glc", "method_in_brief": "as §1"}, "Gal6S(b1-4)Glc6S": {"molecular_target": "Gal6S(b1-4)Glc6S", "method_in_brief": "as §1"}, "Gal6S(b1-4)GlcNAc": {"molecular_target": "Gal6S(b1-4)GlcNAc", "method_in_brief": "as §1"}, "Gal6S(b1-4)GlcNAc6S": {"molecular_target": "Gal6S(b1-4)GlcNAc6S", "method_in_brief": "as §1"}, "GalNAc(a1-3)Gal": {"molecular_target": "GalNAc(a1-3)Gal", "method_in_brief": "as §1"}, "GalNAc(a1-3)GalNAc": {"molecular_target": "GalNAc(a1-3)GalNAc", "method_in_brief": "as §1"}, "[16]": {"molecular_target": "GalNAc(a1-3)GalNAc(b1-3)Gal(a1-4)Gal(b1-4)Glc", "method_in_brief": "as §1"}, "[17]": {"molecular_target": "GalNAc(a1-3)GalNAc(b1-3)Gal(a1-4)Gal(b1-4)GlcNAc", "method_in_brief": "as §1"}, "GalNAc(b1-3)Gal": {"molecular_target": "GalNAc(b1-3)Gal", "method_in_brief": "as §1"}, "[18]": {"molecular_target": "GalNAc(b1-3)Gal(a1-4)Gal(b1-4)GlcNAc", "method_in_brief": "as §1"}, "[19]": {"molecular_target": "GalNAc(b1-3)Gal(a1-4)Gal(b1-4)GlcNAc(b1-3)Gal(b1-4)Glc", "method_in_brief": "as §1"}, "[20]": {"molecular_target": "GalNAc(b1-3)Gal(a1-6)Gal(b1-4)Glc", "method_in_brief": "as §1"}, "GalNAc(b1-3)GalNAc": {"molecular_target": "GalNAc(b1-3)GalNAc", "method_in_brief": "as §1"}, "GalNAc(b1-3)GlcNAc": {"molecular_target": "GalNAc(b1-3)GlcNAc", "method_in_brief": "as §1"}, "GalNAc(b1-4)Gal(b1-4)Glc": {"molecular_target": "GalNAc(b1-4)Gal(b1-4)Glc", "method_in_brief": "as §1"}},
  "note": "The list shows a part of the results.",
  "data": [
    {"binder": "B1", "values": [
      {"measurement": "glycan array binding signal (z-score)", "setting": "[1]", "result": -0.06},
      {"measurement": "glycan array binding signal (z-score)", "setting": "[2]", "result": -0.317},
      {"measurement": "glycan array binding signal (z-score)", "setting": "[3]", "result": -0.039},
      {"measurement": "glycan array binding signal (z-score)", "setting": "[4]", "result": -0.501},
      {"measurement": "glycan array binding signal (z-score)", "setting": "[5]", "result": -0.375},
      {"measurement": "glycan array binding signal (z-score)", "setting": "[6]", "result": -0.241},
      {"measurement": "glycan array binding signal (z-score)", "setting": "[7]", "result": -0.372},
      {"measurement": "glycan array binding signal (z-score)", "setting": "[8]", "result": -0.382},
      {"measurement": "glycan array binding signal (z-score)", "setting": "[9]", "result": -0.195},
      {"measurement": "glycan array binding signal (z-score)", "setting": "[10]", "result": -0.381},
      {"measurement": "glycan array binding signal (z-score)", "setting": "[11]", "result": -0.412},
      {"measurement": "glycan array binding signal (z-score)", "setting": "Gal(b1-4)GlcNAc6P", "result": 0.22},
      {"measurement": "glycan array binding signal (z-score)", "setting": "Gal(b1-6)Gal", "result": 0.545},
      {"measurement": "glycan array binding signal (z-score)", "setting": "Gal3S(b1-3)GalNAc", "result": -0.126},
      {"measurement": "glycan array binding signal (z-score)", "setting": "Gal3S(b1-3)GlcNAc", "result": -0.284},
      {"measurement": "glycan array binding signal (z-score)", "setting": "[12]", "result": -0.344},
      {"measurement": "glycan array binding signal (z-score)", "setting": "Gal3S(b1-4)Glc", "result": 0.644},
      {"measurement": "glycan array binding signal (z-score)", "setting": "Gal3S(b1-4)Glc6S", "result": 0.669},
      {"measurement": "glycan array binding signal (z-score)", "setting": "Gal3S(b1-4)GlcNAc", "result": -0.283},
      {"measurement": "glycan array binding signal (z-score)", "setting": "[13]", "result": 0.707},
      {"measurement": "glycan array binding signal (z-score)", "setting": "[14]", "result": -0.24},
      {"measurement": "glycan array binding signal (z-score)", "setting": "[15]", "result": 0.678},
      {"measurement": "glycan array binding signal (z-score)", "setting": "Gal3S4S(b1-4)GlcNAc", "result": -0.239},
      {"measurement": "glycan array binding signal (z-score)", "setting": "Gal3S6S(b1-4)GlcNAc", "result": -0.294},
      {"measurement": "glycan array binding signal (z-score)", "setting": "Gal3S6S(b1-4)GlcNAc6S", "result": -0.078},
      {"measurement": "glycan array binding signal (z-score)", "setting": "Gal4S(b1-4)GlcNAc", "result": -0.335},
      {"measurement": "glycan array binding signal (z-score)", "setting": "Gal4S6S(b1-4)GlcNAc", "result": -0.161},
      {"measurement": "glycan array binding signal (z-score)", "setting": "Gal6P(b1-4)GlcNAc", "result": 1.08},
      {"measurement": "glycan array binding signal (z-score)", "setting": "Gal6S(b1-3)GlcNAc", "result": -0.349},
      {"measurement": "glycan array binding signal (z-score)", "setting": "Gal6S(b1-3)GlcNAc6S", "result": 0.536},
      {"measurement": "glycan array binding signal (z-score)", "setting": "Gal6S(b1-4)Glc", "result": -0.346},
      {"measurement": "glycan array binding signal (z-score)", "setting": "Gal6S(b1-4)Glc6S", "result": 0.088},
      {"measurement": "glycan array binding signal (z-score)", "setting": "Gal6S(b1-4)GlcNAc", "result": -0.529},
      {"measurement": "glycan array binding signal (z-score)", "setting": "Gal6S(b1-4)GlcNAc6S", "result": -0.205},
      {"measurement": "glycan array binding signal (z-score)", "setting": "GalNAc(a1-3)Gal", "result": 0.175},
      {"measurement": "glycan array binding signal (z-score)", "setting": "GalNAc(a1-3)GalNAc", "result": -0.409},
      {"measurement": "glycan array binding signal (z-score)", "setting": "[16]", "result": -0.528},
      {"measurement": "glycan array binding signal (z-score)", "setting": "[17]", "result": -0.229},
      {"measurement": "glycan array binding signal (z-score)", "setting": "GalNAc(b1-3)Gal", "result": -0.032},
      {"measurement": "glycan array binding signal (z-score)", "setting": "[18]", "result": -0.488},
      {"measurement": "glycan array binding signal (z-score)", "setting": "[19]", "result": -0.43},
      {"measurement": "glycan array binding signal (z-score)", "setting": "[20]", "result": -0.359},
      {"measurement": "glycan array binding signal (z-score)", "setting": "GalNAc(b1-3)GalNAc", "result": -0.432},
      {"measurement": "glycan array binding signal (z-score)", "setting": "GalNAc(b1-3)GlcNAc", "result": -0.423},
      {"measurement": "glycan array binding signal (z-score)", "setting": "GalNAc(b1-4)Gal(b1-4)Glc", "result": 4.05}
    ]}
  ]
}
